# The other results are listed elsewhere or left out. These are noisy estimates, calculated here from bound and input reads.
# Biological target: T1, Pho4 (S. cerevisiae) (UniProt P07270)
# T1 sequence: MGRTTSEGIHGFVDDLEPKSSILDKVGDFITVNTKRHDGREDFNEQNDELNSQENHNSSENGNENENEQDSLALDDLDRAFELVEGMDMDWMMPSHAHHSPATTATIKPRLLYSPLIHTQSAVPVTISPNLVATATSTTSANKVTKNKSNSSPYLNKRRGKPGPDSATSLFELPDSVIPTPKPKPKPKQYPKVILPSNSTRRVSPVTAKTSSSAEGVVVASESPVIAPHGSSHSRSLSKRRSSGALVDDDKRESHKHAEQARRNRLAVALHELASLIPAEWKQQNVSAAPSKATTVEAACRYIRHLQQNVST
# Experiment: relative binding free energy (BET-seq); higher = weaker binding
# Conditions: reference: library average
row,Sequence,relative binding free energy [kcal/mol]
1,CGGGACACGTGAGATT,0.5
2,TCAAACACGTGGGATT,0.11
3,TTAGTCACGTGAAGTG,0.3
4,TTGGACACGTGTGCGC,0.04
5,AGGTTCACGTGATGCG,0.15
6,AATTGCACGTGTAGAG,-0.11
7,CTATTCACGTGTTGCT,0.23
8,AATGTCACGTGAGTCT,0.37
9,TCAAGCACGTGAGGTT,0.05
10,TGGAACACGTGTAGGC,0.01
11,CGTAGCACGTGATTGA,0.18
12,TTGAGCACGTGCGTGG,-0.08
13,TAGGGCACGTGCGCCG,-0.14
14,AAAGACACGTGTCGGG,0.04
15,TGACTCACGTGTGGGA,0.15
16,GAATGCACGTGCTGTG,-0.09
17,CATGGCACGTGTTATT,-0.05
18,GGCTGCACGTGTAGAG,0.24
19,CGGATCACGTGGTGGC,0.12
20,GATGACACGTGGTATT,-0.07
21,TCGGGCACGTGGGTTG,-0.23
22,GGGACCACGTGGTTGT,0.01
23,TGTTGCACGTGGCAAA,0
24,TGGTACACGTGCTGAG,0.03
25,AGGCGCACGTGGCGGC,-0.14
26,ATAGGCACGTGAGAGC,0.23

row,Sequence,relative binding free energy [kcal/mol]
1,TGCGTCACGTGGAATG,0.08
2,TATCGCACGTGGGAGA,-0.1
3,AAAGGCACGTGTGCTA,0.01
4,TGGAGCACGTGAGATT,0.28
5,AAGTGCACGTGGGGTT,-0.23
6,TTCATCACGTGGGGCG,-0.1
7,GGCGACACGTGGTTGA,0.16
8,ACTGGCACGTGCTTGG,-0.11
9,ATTGTCACGTGCTGGT,0.01
10,AGCAACACGTGGGTTG,-0.22
11,ACTGTCACGTGGGAAT,0.19
12,TAGGGCACGTGTTCAT,-0.29
13,TTGTTCACGTGGGGGC,0.16
14,ATTGACACGTGTAAGG,0.18
15,TGTAGCACGTGGTCGA,-0.05
16,AGGGACACGTGTGTTC,0.06
17,AAAGTCACGTGTGAAT,0.15
18,GTCTGCACGTGGAGGC,0.12
19,ATAGTCACGTGATATA,0.26
20,GTCGACACGTGTGTTG,0.05
21,TTTTGCACGTGCGAAG,-0.07
22,TGCGGCACGTGAGTTT,0.13
23,CGCGTCACGTGGGGGC,-0.06
24,GGAAGCACGTGTGGGG,-0.17
25,GGAGTCACGTGTTAAT,0.14
26,GATATCACGTGTGGCT,0.12

row,Sequence,relative binding free energy [kcal/mol]
1,TTTGTCACGTGACGGA,0.14
2,ACTGACACGTGGGGAG,-0.09
3,TGTCGCACGTGAGGCT,0.14
4,CAAGTCACGTGTGTTG,0.15
5,ATCGTCACGTGTGGCT,0.07
6,GGGTTCACGTGCGCGG,0.22
7,ACGGTCACGTGAAGGT,0.34
8,TGTGGCACGTGCAGTC,-0.11
9,AAGATCACGTGTAATT,0.4
10,GGTGGCACGTGCATTA,-0.02
11,CGTGTCACGTGAGGCG,0.26
12,AAGGTCACGTGGGATA,-0.11
13,ATCAGCACGTGTATGG,0.03
14,TTTATCACGTGATATT,0.14
15,GGGGTCACGTGCACGG,0
16,TTGTACACGTGGGGAG,-0.01
17,ATCGGCACGTGTTATG,-0.07
18,ATATTCACGTGTTTTA,0.17
19,GTGTTCACGTGGTAGG,0.2
20,TGTTCCACGTGGTTGC,0
21,GTTCACACGTGTAATG,0.19
22,TCGAGCACGTGGTCTG,-0.15
23,CTTCTCACGTGTAGGG,0.26
24,TGTCGCACGTGCTTGG,-0.22
25,ACAGGCACGTGCAGGT,-0.03
26,GTGGGCACGTGTCGGG,0.15

row,Sequence,relative binding free energy [kcal/mol]
1,AGTAGCACGTGAGGCT,0.09
2,AGTCTCACGTGAGCGG,0.33
3,GCAGCCACGTGGGGGT,-0.2
4,GGTGTCACGTGTTATT,0.03
5,TTTTCCACGTGTATGT,0.01
6,TTTGACACGTGACTTT,0.15
7,TCGTTCACGTGGACTT,0.51
8,GGTTTCACGTGGAATA,0.4
9,GGATTCACGTGGGATT,0.19
10,CGGGTCACGTGAGATA,0.33
11,ACTTGCACGTGAGGGA,0.16
12,ATTAGCACGTGCTGTT,-0.09
13,AGGAACACGTGGAGTG,-0.1
14,TATCTCACGTGAAGGG,0.3
15,GATGTCACGTGAGTAG,0.36
16,GGGTCCACGTGCGGTT,-0.1
17,AGTATCACGTGAGGGG,0.32
18,ATGGACACGTGCGTAG,-0.04
19,AAATTCACGTGGGGTT,0.16
20,GAATACACGTGGTCGG,0
21,TCTAGCACGTGATTAT,0.22
22,AGCTTCACGTGCTGGG,0.21
23,TCGTACACGTGTTTTT,0.23
24,AATAACACGTGTTGTG,0
25,TGGTTCACGTGTGTGA,0.33
26,GTTGGCACGTGCAGGA,-0.12

row,Sequence,relative binding free energy [kcal/mol]
1,TCGTGCACGTGTAGGC,0
2,ATTAACACGTGGTCTT,-0.16
3,GTTAGCACGTGCGGGA,-0.13
4,AGTGGCACGTGAGAAA,0.14
5,AGAATCACGTGAGGAG,0.37
6,GCTAACACGTGTTGTG,-0.06
7,TGATTCACGTGAATGT,0.34
8,AAATTCACGTGTTTTA,0.15
9,GTGTTCACGTGATGGA,0.46
10,TGACTCACGTGTGTTT,0.22
11,ATCGGCACGTGCATGT,-0.01
12,TTTAGCACGTGATTAA,-0.08
13,ATTGCCACGTGGTTTT,-0.13
14,AGCGGCACGTGTGTAT,-0.08
15,AGTGTCACGTGGGTAA,-0.09
16,TTGGCCACGTGGGTTG,-0.13
17,TTTCTCACGTGGTTTA,0.15
18,TCAGTCACGTGATGTT,0.22
19,TCTGTCACGTGACGTT,0.18
20,TTCTTCACGTGAGATG,0.25
21,GGACACACGTGTGTGT,0.14
22,TTGGGCACGTGCGAGA,-0.1
23,GCTGCCACGTGGGTGT,-0.29
24,ATGTGCACGTGTGCTA,-0.14
25,TTTGGCACGTGTGAGA,-0.02
26,GTAGACACGTGTATTT,0.02

row,Sequence,relative binding free energy [kcal/mol]
1,TTTTTCACGTGTTCGA,0.32
2,GTTAACACGTGATGGT,0.24
3,AGTGGCACGTGGGGCT,-0.27
4,GGAGGCACGTGCGGTT,-0.08
5,AGCGCCACGTGTGTTG,0.01
6,TCTTGCACGTGGGAGC,-0.02
7,TTCGACACGTGTTTTA,0.11
8,GGAGTCACGTGCGCGT,0.03
9,ATGGACACGTGCTAGG,-0.04
10,AAGGACACGTGAATGG,0.28
11,GTTGTCACGTGAAGCA,0.38
12,AGATGCACGTGTTGGC,0.02
13,TGTATCACGTGTCGGA,0.14
14,GAGTTCACGTGGCTGG,0.38
15,GGAGTCACGTGGTTAT,0.16
16,TTTCTCACGTGTATGG,0.21
17,GGTAGCACGTGATCGG,0.03
18,TCAAACACGTGGGTGG,-0.11
19,TGGGGCACGTGCACTG,-0.14
20,ATGTGCACGTGACGAG,0.14
21,CCGAGCACGTGGTGTG,-0.16
22,AGTAGCACGTGTTGAT,-0.15
23,GGGCGCACGTGTTTGC,-0.01
24,GTAAGCACGTGGTGTA,-0.25
25,GATAGCACGTGAGTTG,0.21
26,GGTGACACGTGGGACA,0.02

row,Sequence,relative binding free energy [kcal/mol]
1,TTGACCACGTGATGGT,0.13
2,TGGATCACGTGAGGCA,0.27
3,AGCGGCACGTGGTTGT,-0.08
4,GTAATCACGTGCAGTT,0.1
5,ATGATCACGTGTTACG,0.28
6,GGATTCACGTGATGTG,0.4
7,GGCTTCACGTGGGTTC,0.33
8,TAGGTCACGTGTGTAC,0.16
9,TTTATCACGTGCGGCT,0.23
10,AAGTTCACGTGATTGA,0.31
11,TACATCACGTGTGGGG,0.18
12,ATTAGCACGTGTGAAT,-0.11
13,TTAAGCACGTGTGTTG,-0.1
14,TGGCTCACGTGTGGAT,0.16
15,CTTGCCACGTGTTTTG,-0.02
16,TAATTCACGTGCGTAT,0.15
17,AGGGTCACGTGATACG,0.1
18,AAAGGCACGTGGGGCG,-0.16
19,CGGTTCACGTGGTTAC,0.3
20,GGGGGCACGTGTAATT,0.06
21,TATGGCACGTGTAGTT,-0.11
22,AGTAACACGTGGAAGG,-0.11
23,GGGTACACGTGCTAGT,0.02
24,ATGCTCACGTGTATGG,0.26
25,ATTGTCACGTGGGCAG,-0.04
26,GGTTGCACGTGGCTAA,-0.1

row,Sequence,relative binding free energy [kcal/mol]
1,TGTTGCACGTGGCGAA,-0.1
2,AAGGCCACGTGGAGGG,-0.12
3,ATAACCACGTGGTGTG,-0.19
4,GTGTCCACGTGTCGGG,0.12
5,CAGCGCACGTGTTTGT,-0.04
6,GGCGGCACGTGATAGG,0.08
7,ATGTTCACGTGGCATT,0.23
8,AATGACACGTGTGCTG,0.03
9,TAAGGCACGTGCTTTT,-0.19
10,AGCGTCACGTGGATCG,0.23
11,AGGGACACGTGGGATA,0.01
12,TTGCGCACGTGGGTAT,-0.31
13,GGCTGCACGTGGTGTC,-0.01
14,TTTTACACGTGTTGAA,0.15
15,GGGTTCACGTGCTCAG,0.24
16,TAAGTCACGTGAGCTT,0.22
17,TGAGTCACGTGACTCG,0.39
18,GTTGGCACGTGGCGCT,-0.26
19,TTATGCACGTGAAAAG,0.17
20,AGGGGCACGTGGGGTT,-0.19
21,GGAGGCACGTGATGAA,-0.02
22,CAGGACACGTGTTTGG,-0.07
23,TGGGGCACGTGGGAGC,-0.26
24,TATTACACGTGTAATT,0.25
25,GTGATCACGTGTCTAT,0.19
26,GATGACACGTGTGAGG,0.08

row,Sequence,relative binding free energy [kcal/mol]
1,GCGTGCACGTGTAGGA,0.03
2,TTGTACACGTGCGTGA,-0.11
3,TAGAGCACGTGGTGCC,-0.08
4,GGTAACACGTGGTGAG,-0.05
5,TAGGACACGTGGTGGC,-0.11
6,GTATACACGTGTATTT,0.03
7,TTGGCCACGTGAATGT,0.31
8,TGTTGCACGTGTAGCC,0.11
9,TGCTGCACGTGGTTGT,-0.05
10,GGAGTCACGTGGTAGG,0.03
11,TGGTTCACGTGATACA,0.3
12,CCAGGCACGTGGGGGA,-0.3
13,GTATGCACGTGCGAGG,-0.05
14,AAGATCACGTGGGTTG,0.01
15,TTCAACACGTGATGAG,0.27
16,TGCAGCACGTGGTGGC,-0.15
17,GGTACCACGTGGGTAG,-0.05
18,CGAGACACGTGAGGGT,0.06
19,AGTGTCACGTGGCCGG,-0.11
20,TGGCTCACGTGTGGCG,0.17
21,GTCTTCACGTGGTTGA,0.31
22,AGCAACACGTGGGGTT,-0.08
